From PMC10726135
The other results are listed elsewhere or left out. At the low end of the ranking the order means little. Measured with an extract: partners may take part in the binding.

Each sequence was assayed against T1, HNF4alpha8 (COS-7 nuclear extract) (UniProt P41235-5) (assay: protein-binding microarray). Conditions: COS-7 nuclear extract on double-stranded Agilent 4x180k PBM; binding buffer, salt, pH and temperature not given; high values mean tight binding; double strand, one strand shown; sequences stand for … in …GCCTAGGGAGATTAGAGTATCGGTCGA.
T1 sequence: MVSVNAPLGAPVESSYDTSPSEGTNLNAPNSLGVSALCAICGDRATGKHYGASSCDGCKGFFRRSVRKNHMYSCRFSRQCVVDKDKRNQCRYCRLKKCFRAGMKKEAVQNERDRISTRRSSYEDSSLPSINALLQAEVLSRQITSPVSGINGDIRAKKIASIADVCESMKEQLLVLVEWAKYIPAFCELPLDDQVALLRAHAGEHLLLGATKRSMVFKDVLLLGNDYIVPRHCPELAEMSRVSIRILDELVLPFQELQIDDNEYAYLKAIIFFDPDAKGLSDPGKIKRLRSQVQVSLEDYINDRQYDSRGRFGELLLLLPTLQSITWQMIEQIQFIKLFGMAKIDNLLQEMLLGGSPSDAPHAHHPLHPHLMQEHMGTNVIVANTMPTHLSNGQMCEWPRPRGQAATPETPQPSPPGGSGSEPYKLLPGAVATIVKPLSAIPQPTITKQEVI

Row | Sequence | binding signal (log2 normalized intensity)
1 | CTGCAGTGTGACCTTTGCCTTCTTGACATC | 6.8
2 | GATTGTTGTGTGCCCACCTGGGCAACAGGG | 1.1
3 | GACGCGCTTGGGCGACGGACGCGCCGCGCC | -1.32
4 | TCTGGGATCTCAGGGTGGACTTTAAACATT | 6.85
5 | GATAAGGCTAATCCTTACACAGCAGCTTTA | -1.25
6 | AGCCCAGGTAACATACCAAAAAGCATAACT | -1.17
7 | CTCACCTTCAGATGCCATGTCTAAAGGCTG | -1.23
8 | TAAGAAATCAGGAGCAAAGGTTGGGGGTGG | 1.51
9 | GCCACATCCTGTCTCCTTTAACCTTCATTC | 1.97
10 | CCACAAAGGCCAGAGAAAGAGAGAGTTAGT | -1.29
11 | CAGTCCACATGGTGTCTTTTGTTGTTGTTA | 2.16
12 | ACCCAGTTCGTGCTTCTTGGCCTCTTTGTT | 1.85
13 | GGCCAGCGACTTTAGGGGCCAAGGGAAAAC | -1.29
14 | CCTTGCTCAACTCCCTCTGAAGGGAGGGCC | -1.36
15 | GATGTGTGTATCAATGGCCCCAGTGCACGT | 2.42
16 | GTGGTTGCTCGGAACACGAGGTGAGAGGCG | -1.26
17 | ACGAGCAAGTTTATTCCAAGACTCGCGATA | -1.13
18 | ACAGAGGTCAAAGAGCAATCATCAAGGTGG | 3.85
19 | TTTCCTGTGACTTTTGGCCAGAGTAAGGCG | 2.02
20 | CAAAAGTTCAAAGATATGATGGCCAGTTCA | 1.23
21 | GGCAGGGAAAGGGGGTTTGCAACCTTTGAT | 3.52
22 | TTTTTCCTGGATGCCAGGCAAGAGCTCAGA | -1.26
23 | CATCCTGGCGACAGCAACTAGCAACTTGGA | -0.937
24 | CAACCTCTCCAATGCTATGCTTTTATTTAA | -0.995
25 | TCTTTCAGAAACAAAGGGGGAGGGAGATAG | -1.28

Row | Sequence | binding signal (log2 normalized intensity)
26 | ATCTCCACAAACATACAACCATCAAAGGTC | 3.47
27 | CTTATAGCTCAACCCCCAAAACTGCCTGAT | 3.7
28 | TTGGAATGCCCTTATCTCATACCTTGCATG | 1.18
29 | CAACAAAGCATTATCTACACAGTAAGGTGC | -0.603
30 | GTTATCTAAATTAGATATGGCTTATACTTG | 0.892
31 | AAGATAAGCAGCATTCCACCAAATCTTACC | -1.47
32 | CCGCCCGACTACAACAGCCTTGCAGATAAG | -1.43
33 | TCAGGTCAGTAGCCCAGGGTCACACAGATG | 1.58
34 | TTCCATTGTACTCAGTATGTGCTGACTGAC | 0.312
35 | TTCTATGTTCACATCTCCTCTGGAGGCCAA | 1.33
36 | TAACCCTACAGTCCTGCCACATCCCCCACA | 4.33
37 | CCGGGGAAAGGGAAAAAGGGAGATAGGTTA | -1.32
38 | GAGAAACTTCTTTGTGATGTGTGGATTCAG | 1.31
39 | CCCCCTTCATCTGGGACGTGGCTCAAGATT | 0.804
40 | GATGGATATATGTACAGCTGTGTATGTGGC | 1.55
41 | TATAGGGCATACCCTTCCTGCTGACAAACT | -1.1
42 | CCAGGAGCAGGATAGAAGGAAACAGTTCAG | -1.25
43 | CAAGCAATCTGGCTGCAGAGTCCAAGATGC | 1.95
44 | GTCTAGCGCAAATGATCAAAGGTTGGTTTT | 4.43
45 | TTTGCTTATCTGATAAGTCCATACCTAGTC | 1.07
46 | AACAAGTTCTGCAGACTCCCTAGAAGAGTG | -1.3
47 | CCAGAAGGAATGAGACATGAATCCATCCCA | -1.23
48 | TTTCTGTATAAGACAACCTTTGTTCACAGT | 4
49 | TAGAGCTGTCCAGCAGACAATGGGAGACAT | -1.3
50 | ACTCACACACCCCAAAAGGTCAATCTGGAT | 3.9

Row | Sequence | binding signal (log2 normalized intensity)
51 | TGAGCTCTGATGGCGTATGCAGCAGGGCAG | -1.35
52 | GATCAAAGAATTCCTAATAATACTGACTGA | -1.13
53 | AAAAGCCAAGGCATCTGGGGGCTTGTCAGA | -1.31
54 | GGCAGTAAGATAAGGAGGTAGAGTCTAAGG | -1.35
55 | TCAGATAGCTTTAGCCGGACTTTGTCCTTT | 8.54
56 | GCCGTGCATGCTTGGACTCTGAAGGAATGT | 2.29
57 | TGTTAGAGGGTGGTGGGTGAAGGATGGAAT | 0.332
58 | TAATTACAGAGCAAGTAGAGCTGCTTACAT | -1.34
59 | AGGAGTTTGTTCACCCACCAGAGGGAACGC | -1.19
60 | GGTTCACCGCTCACTGCTCCAGCCACTCAT | -1.02
61 | GTGGCTAGGACCTTTGAACCAGAGAAGATT | 4.11
62 | AGTATCTTAGCCAAAGAGAAGCCTAAGCAG | -1.35
63 | CTGTGTCATCTGAACTCTGACCAACGCCTC | 3.23
64 | CAGCAGACACGGGCAGGTGAGAGGGCTCTG | -1.33
65 | CTAGCTACTAGCCATTTCGGCACCTTCTAC | -1.35
66 | TCAAGGACCTGCTCTGGGGCTACCTCAGGG | -1.48
67 | ATGTAAGGCACTTTATCTAGATAAGTTTAT | -1.26
68 | CATGGACAGCACTTAGGGTTCAAAGGTTGT | 6.85
69 | ACCATGGATGCACTCCATTTACAGACCAAT | -1.31
70 | TCAAGAAGGGCAGTTGACAGAGGACCAAGG | -1.38
71 | TGTTCATACTGCAGCTCTGCGTCTTACTAA | -1.08
72 | GCAGCTCCAATTAGGAGATCAGCCCGTGTC | -1.36
73 | TTTACCGAAATGTGGGTGAGGCTGTGATGT | 1.33
74 | GGTTCAGCTCCATCTGAACTCTTCATGGAC | 1.79
75 | CCTGTCACTCAATGCAGCAGCATTGGACCC | 6

Row | Sequence | binding signal (log2 normalized intensity)
76 | CCTAGGTGCTGAAGATGCAACAGTGACCCA | 3.1
77 | TCCAATTAGGAGATCAGCCCGTGTCTGGGC | -1.21
78 | CTTAGGGTCAATGGGACATTGCATTCCACC | 1.64
79 | TGTCGTTTTCCCGGTTTGTTCCATGCCACA | 1.67
80 | ATAGCGTCTCCTGGCCTCTGTGAAGTGGAG | -0.781
81 | CAGGCCTAACCCCTAACCCAGTGAATTCCT | 2.67
82 | CTGGATGTTTTGATGAACTTTCAAGATGAA | 1.71
83 | TTGCTGTCTCTTCCACCTGGAATGCACTTG | 1.67
84 | GGGAGGTGTTTATCTTGTGGTTGGAATGTT | 2.45
85 | CCCCGCGTCCGTGCACCCTTCCTCTGCAGC | 0.846
86 | CTTTCGCCCTTTGTCCTATGACTCTCTCAA | 3.75
87 | TGAGCACACACTCACGGACCCTGTTACCAC | 0.686
88 | ACAGATGGTGACCAGACTACCTCTTTAGGC | -1.21
89 | GACCTACTTAGTCTCCAGCCCCCAGAGGTC | 4.63
90 | CCAAGAACAAACAAAAACCAAAAAAACTTA | -1.41
91 | AGCATCTAAACCTCTGCACACAGGATGTTT | -1.46
92 | TGCTGTCTAGAAAGATTGCAGCAAGGAATT | -1.25
93 | CTCCACTACATTAGCAGCGCCACCAACCAT | 4.03
94 | GGAGATAACCCATCTGGGGAAAGTGCAAGG | -1.21
95 | AGGGAGCAGAGTCCCAAGCATCTCTGAGCA | -1.27
96 | GGCTGTGTCGGTATAAGTTCTACATTCCCA | -0.19
97 | CTCCAGGGCACTGCCCTTTGGAACCTGCCC | 6.57
98 | AGGGTAGGAGAAGCTGGAAGGACAGCATTC | -1.29
99 | TGAACACAGTTCGAACAGTTGGCCACCTTT | 2.13
100 | TGAAGTTGGATAACCTTCTGCTGGATGCCC | 1.02

Row | Sequence | binding signal (log2 normalized intensity)
101 | AATCATGTAGCCAGATAAGAGCTATCAATG | -1.45
102 | GGGTTGGTATTACAAAGCAATCTACTTTTC | -0.643
103 | CAGATTCCTGAGCCCAGATCCTCTAAATTC | -1.33
104 | CCTTTCCCCTAAAGGAGGCAAGGTCCAAAC | 4.36
105 | CTAAAAAAATAGTTTCAACTTAACCCCAGT | 3.24
106 | CCCTGCCTAAACAAGGCAGACTTGGATTTT | 0.308
107 | TATGGCTGGGATATCAGGTATTGCCCAGTA | 0.921
108 | TATTGAGAAGAAACCTTTGCCCAACAGGAT | 2.13
109 | TCCGTGGTAACACACATTAGCTTCCCGGCT | -1.34
110 | CACGGTAGCATGCTCTCTTGTCAAGACCGA | -1.23
111 | CAGTTATCAGACAGAGGAATTCAGCAGGAT | -1.07
112 | TGACTAGATTTCTGTCTGTTTTCCCCTTCC | 2.64
113 | CATTTGAACCCAACCGTCCAGAGTCCACGT | 4.68
114 | CAACTGACATCTGGAAATGTTTGTAGGGAC | 0.67
115 | CCATGGTAAGAACTACAGTTGACCTTTGAA | 8.15
116 | CTGGGCAGGCGCCGACTGCCAGGAGGGGAC | -1.33
117 | GCAACCACAGCCTCTGCATTTGCTCCCTGA | -0.299
118 | ATCTTATCGCCTAGTACTCCTGCCCCTGTG | 2.3
119 | TAGGGCCCCCTGTGATTACTTCCACTCTTG | 0.851
120 | AGTAGGTTTACTAAAGGAAGGGAGGTGAGT | -1.39
121 | TTCATCCTCCCATACAGGATCGGTCACATT | 1.74
122 | ACTATCAGTGAAGAGCAAACAATCAGTGAA | -1.31
123 | AATAGGCCCTCCCAGCCTATTAACCCCAAA | 5.39
124 | TTCAGCAAATATTGAATGTGTTACACCTGT | 1.33
125 | CATATCTAGGATCACGCCATGAGTTGGGGA | -0.161

Row | Sequence | binding signal (log2 normalized intensity)
126 | AAATCCCCGCCTTTGACACAGGCGACCTTC | 4.58
127 | CCAGATTCCAGCCTCCTGCTCTGGGCTTTC | -1.27
128 | GGAAAGGGGGTTTGCAACCTTTGATAACCT | 2.82
129 | GGGTCCAAAGAACATTGCATTCCTTTGTTT | 2.18
130 | AGGACTTCTAGAGTGAGCCATTTATCAGGG | -1.31
131 | AGCTTGGGTTCACATTCCAGCTCTGTGACT | -0.0998
132 | CAATCTGGATTGTACTGTGTCTTGATCTTG | 1.91
133 | GACAAAGGCCGCGCCCGCCCGCGCCGGCCT | -1.38
134 | ATGCTAAAGTCTACATTCTAGATGACCCCT | 6.17
135 | GACATTCCTTCAGCGTGAACTTTGACATGA | 6.23
136 | ACAGCACTTTGGCGTGCTGTGTACTTTGAA | 4.92
137 | TTCTTGACCTGCGTAGCCCAAAGGTCAGTC | 5.04
138 | CTTCATCAATCAGCCTGATACCAGATCCTT | -0.921
139 | GGAAGACTTCATTCAGGTAGCAGGCCTCAG | -1.31
140 | CCCACCAGGGGGAGGCTCAGAGTCTGTGGA | -1.32
141 | CAGACTTTCCCCCTATTTCCCTCTGTGCCC | 3.18
142 | AGCTGGGAGACCACTGGTGTAAGCTCTGGA | -1.24
143 | ATTACTCCCACCGTGTGTGCACTTTAAATT | 1.93
144 | GACAAACCAGTCCCATCTGTGCTCATTATT | 0.687
145 | TCCTGGGTCCACCGTGCGCAAACACACCCA | -1.23
